# From PMC4336329 (PLoS ONE, 2015)
# Among all 310,000 compounds or so, about 14,000 (4.5%) showed an effect of 50% or more. The effect is printed as a negative number. The list shows a part of the results.
# Target: human ether-à-go-go-related gene (hERG) potassium channel (human, UniProt Q12809)
# Assay: primary screen, population patch clamp on CHO cells stably expressing hERG
# 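Also: peak tail current of the secondary pulse compared with the same well before compound.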
# Chain of human ether-à-go-go-related gene (hERG) potassium channel (Q12809 whole entry, looked up): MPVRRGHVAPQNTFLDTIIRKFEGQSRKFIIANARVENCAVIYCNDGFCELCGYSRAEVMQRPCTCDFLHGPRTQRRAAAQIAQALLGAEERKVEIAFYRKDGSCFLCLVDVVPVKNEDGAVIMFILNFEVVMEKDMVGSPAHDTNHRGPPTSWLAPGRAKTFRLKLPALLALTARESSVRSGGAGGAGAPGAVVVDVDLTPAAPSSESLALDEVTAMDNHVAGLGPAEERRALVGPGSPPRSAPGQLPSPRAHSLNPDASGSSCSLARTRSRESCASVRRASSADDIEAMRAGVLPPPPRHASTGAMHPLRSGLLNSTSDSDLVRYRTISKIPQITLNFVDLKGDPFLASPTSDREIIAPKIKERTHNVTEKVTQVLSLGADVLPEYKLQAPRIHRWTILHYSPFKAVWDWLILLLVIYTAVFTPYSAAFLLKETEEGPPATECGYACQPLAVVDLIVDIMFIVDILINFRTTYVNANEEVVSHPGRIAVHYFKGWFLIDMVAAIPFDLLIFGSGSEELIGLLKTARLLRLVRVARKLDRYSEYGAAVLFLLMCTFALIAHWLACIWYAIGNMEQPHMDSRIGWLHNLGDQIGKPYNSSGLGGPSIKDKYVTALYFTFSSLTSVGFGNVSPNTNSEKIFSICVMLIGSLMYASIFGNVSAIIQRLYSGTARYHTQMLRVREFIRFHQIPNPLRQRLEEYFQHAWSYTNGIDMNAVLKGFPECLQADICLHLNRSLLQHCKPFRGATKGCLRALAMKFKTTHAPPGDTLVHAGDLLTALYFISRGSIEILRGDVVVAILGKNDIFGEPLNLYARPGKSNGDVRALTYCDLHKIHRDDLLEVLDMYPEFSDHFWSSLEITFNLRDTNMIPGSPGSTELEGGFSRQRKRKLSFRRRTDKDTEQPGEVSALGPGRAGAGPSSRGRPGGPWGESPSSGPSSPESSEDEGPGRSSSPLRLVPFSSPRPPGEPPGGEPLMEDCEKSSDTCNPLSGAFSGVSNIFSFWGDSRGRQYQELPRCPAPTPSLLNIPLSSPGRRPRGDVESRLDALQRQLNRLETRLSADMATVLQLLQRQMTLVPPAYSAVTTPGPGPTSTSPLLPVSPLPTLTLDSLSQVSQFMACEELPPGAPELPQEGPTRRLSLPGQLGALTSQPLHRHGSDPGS
row,SMILES,"hERG current change (%, negative = inhibition) at 10uM [%]"
1,O=C1OCCN1S(=O)(=O)Nc1ccccc1,12.8
2,COc1ccc(CCN(C)Cc2c(O)ccc3cc(Br)ccc23)cc1OC,-59.5
3,COc1ccc(CS(=O)(=O)CC2(O)CCN(C(=O)c3cccc(C(F)(F)F)c3)CC2)cc1,-6.92
4,c1ccc(C(c2c[nH]c3ccccc23)c2c[nH]c3ccccc23)nc1,-8.55
5,COc1ccc([N+](=O)[O-])cc1N(CC(O)CN(CC(C)C)CC(C)C)S(=O)(=O)c1ccc(C)cc1.Cl (stereo not shown),-13.7
6,CCSC1=NCCN1S(=O)(=O)c1ccc(Cl)cc1,-20.1
7,COc1ccccc1NC(=S)N(Cc1cccnc1)Cc1ccco1,-33.6
8,Cc1noc(NS(=O)(=O)c2ccc(NC(=O)CSc3ncccn3)cc2)c1C,-1.05
9,CN(C)C(=O)c1c(-c2ccccc2)oc2ccc(O)cc12,-6.5
10,CCOC(=O)C1=C(COC(=O)CCOc2ccccc2)NC(=O)NC1C (stereo not shown),-30.6
11,c1ccc(-c2nc(N3CCCCCC3)c3ccccc3n2)nc1,-77.5
12,COc1ccc(-n2cnnc2SCC(=O)NC2CCCc3ccccc32)cc1 (stereo not shown),2.51
13,Cn1c(CC(=O)NNC(=O)c2ccccc2[N+](=O)[O-])nc2ccccc21,9.9
14,CCN1C(=NCC2CC2)N[C@@H](c2cccc(C(F)(F)F)c2)C(C(=O)OC)=C1C,-21.6
15,OC[C@@H](O)[C@@H](O[C@H]1O[C@H](CO)[C@@H](O)[C@H](O)[C@H]1O)[C@H](O)[C@@H](O)CO,16.4
16,CC[C@@]12C(=O)N(c3cccc(Br)c3)C(=O)N1[C@H](c1ccc(Cl)cc1)[C@@H]1C(=O)N(C3CCCCC3)C(=O)[C@@H]12,-3.71
17,COC(=O)c1ccc(C2SCC(=O)N2Cc2ccccc2)cc1 (stereo not shown),-17.7
18,CC(=O)Nc1cn(-c2ccccc2)nc1-c1ccccc1,-19.3
19,O=C(Nc1nc2cc(Cl)ccc2s1)C1CCCN(S(=O)(=O)c2cccc3cccnc23)C1 (stereo not shown),-0.0598
20,CC(C)(C)n1nc2c(c1NC(=O)Cc1ccc(Cl)cc1)CS(=O)(=O)C2,-0.182
21,Cn1c(SCC(=O)NC2CC2)nnc1-c1cccs1,-24.6
22,CCCOC(=O)c1ccc(NC(=O)COC)cc1,1.07
23,N/C(=N\N=C\c1cccs1)SC1CC(=O)N(c2ccc(Br)cc2)C1=O (stereo not shown),15.3
24,CCN(CC)S(=O)(=O)c1cccc(C(=O)Nc2ccccc2C(=O)N2CCOCC2)c1,1.21
25,CC(C)(C)c1ccc(/C=C/C(=O)NC2=NCCS2)cc1,10.5
26,CCOc1ccc2nc(NC(=O)CN3CCOCC3)sc2c1,-34.5

row,SMILES,"hERG current change (%, negative = inhibition) at 10uM [%]"
1,CN(C)S(=O)(=O)c1ccc(C(=O)NNC(=O)c2ccccc2-n2cccc2)cc1,-27.1
2,CCOc1ccc(-c2nc(CSCC(=O)NCCCN3CCCC3=O)c(C)o2)cc1,16.8
3,O=C(c1cccc(S(=O)(=O)N2CCOCC2)c1)N1CCCC1,-5.77
4,CCCC(=O)Nc1nc(C)c(-c2csc(Nc3ccc(Cl)cc3)n2)s1,9.73
5,COc1ccc(OC)c(NC(=O)Cn2cc(C#N)c3cc(Br)ccc32)c1,7.75
6,COc1ccc(/C=C2\SC(c3ccc(C)cc3)=NC2=O)cc1OC,14.2
7,COC(=O)c1cnc2c(c1C(=O)OC)c(=O)n(C)c(=O)n2C,-5.08
8,CCN1CCN(c2ccc(NC(=O)c3ccc4c(c3)OCO4)cc2)CC1,-54.5
9,Cc1cc2oc(C(=O)Nc3ccc(S(=O)(=O)Nc4ncccn4)cc3)c(C)c2cc1Cl,17.5
10,COc1ccc(/C=N/n2c(C)nc3c([nH]c4ccccc43)c2=O)cc1CN1CCCC(C)(C)C1,-38.1
11,O=C(O)c1cc(-c2ccc(N3CCOCC3)cc2)nn1-c1ccccc1Cl,27.7
12,O=C1CCCN2N=C(SCC(=O)Nc3ccccc3C(F)(F)F)SC2=N1,7.76
13,O=C(c1ccc(F)cc1)N(Cc1ccco1)C1CCS(=O)(=O)C1 (stereo not shown),23.2
14,Cc1ccc(S(=O)(=O)N2CCOCC2)cc1C(=O)N1CCN(S(=O)(=O)c2cccs2)CC1,-16.3
15,CC(C)(C)C(=O)Nc1ccc2c(c1)OCCOCCOc1cc(NC(=O)C(C)(C)C)ccc1OCCOCCO2,-65.5
16,CCOc1ccccc1NC(=O)C(=O)NCC1CCCN1CC (stereo not shown),-39.1
17,Cn1c(/C(C#N)=C(\O)c2ccc([N+](=O)[O-])s2)nc2ccccc21,27.7
18,CC[C@H]1CC2CN3CCc4c([nH]c5c([C@H]6C[C@H]7[C@H](CC)CN(C)[C@@H](Cc8c6[nH]c6ccccc86)[C@H]7C(=O)OC)c(OC)ccc45)C(C(=O)OC)(C2)C13,-7.1
19,Cc1nn(CC(=O)N/N=C/c2ccc(F)cc2)c(C)c1[N+](=O)[O-],-9.59
20,O=C(COC(=O)C1=COCCO1)Nc1ccc(F)c(F)c1,-1.21
21,CCC(=O)N1CCN(c2c(Cl)cccc2[N+](=O)[O-])CC1,-13.5
22,COc1ccc(C)cc1NC(=O)NC(C)c1ccc2c(c1)OCO2 (stereo not shown),7.35
23,CCc1ccc(NC(=O)[C@H](C)NC(=O)C2CCN(C(=O)[C@@H](N)Cc3ccccc3)CC2)cc1,3.97
24,Cc1ccc(/C=C/C(=O)N2CCCN(C(=O)/C=C/c3ccc(C)cc3)CC2)cc1,-74.8
25,O=C(COc1ccc(S(=O)(=O)Nc2ccccc2)cc1)NCc1ccccn1,-2.45
26,NS(=O)(=O)c1c(Sc2ccccc2C(=O)O)ccc2ccccc12,28.4
